Measurements: the supplement of paper PMC11417369
Some of the results follow.

test system: PF3D7_0420300 AP2 domain 1 (GST-tagged); experiment: gcPBM binding intensity (ln(normalized median fluorescence intensity)); higher = stronger DNA binding
Outline: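 Binding intensity values are the highest Masliner-normalised natural-log median intensity among replicate spots of either probe orientation. The binding step lasted 1 h in 1× PBS with 1% milk, 0.2 mg/ml BSA, 0.5% salmon testes DNA and 0.03% Triton X-100, using GST-tagged P. falciparum DNA-binding domains expressed in E. coli on an Agilent 4 × 180k array of primer-extended double-stranded 36-bp intergenic genomic probes plus negative controls. Alexa488 anti-GST antibody and a 488 nm scan detected bound protein.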

First: TTTTATTTAGGAGGTGCATGTAATACGGAACATAAT [TGCATGCA_site827]
Second: CCATAACTCCTATGCACACATAAATATTACAGAGAT [CACACA_site5984]
The “gcPBM binding intensity (ln)” value of the first is higher: 9.42 for the first, 9.39 for the second.

First: GCACGAAACAATGTATATATATATATATATATATAT [GTGCAC_negctrl_site412]
Second: TTCTTTATGGAAGTGTAAAAAAAGAAATACTTTTTT [CACACA_negctrl_site915]
The “gcPBM binding intensity (ln)” value of the first is higher: 9.12 for the first, 8.7 for the second.

Compared with “ATATAACAGAAACACACACACATATATATATATTAT [CACACA_site4140]”, “ATAAATGATAGTAAAAGTACACAAAATGTTTTAAAA [XGTACX_site1623]” is lower in “gcPBM binding intensity (ln)” value: 10.2 for the first, 9.07 for the second.

First: TATTTTTATATATAATCACACATTGGAATGTTCTAA [CACACA_site5540]
Second: TACACAAACAGACACACACACACACGCGCACAAAAA [CACACA_site7192]
The “gcPBM binding intensity (ln)” value of the first is lower: 9.14 for the first, 10.2 for the second.

Compared with “ATTATAAATATATTTTGTACTTAAAAGGAAAAAAAA [XGTACX_site55]”, “ATTACATGTATACATGTCAACACGTATAAAAAAAAA [CACACA_negctrl_site1154]” is higher in “gcPBM binding intensity (ln)” value: 9.02 for the first, 9.06 for the second.

Going from “AATAAGCATAGACACACACACAAAAAAAAAAAAAAA [CACACA_site6476]” to “GATTATCTTCAAGTATGTACACACTATATATAATAA [XGTACX_site5108]”, the “gcPBM binding intensity (ln)” value falls from 9.66 to 9.3.

Compared with “AATAAATAGAGGAAATGTACATATAAAAATAATTTC [XGTACX_site2454]”, “TTAACATCTTCGTTGACACACAAAAAAAAAAATAAT [CACACA_site1819]” is lower in “gcPBM binding intensity (ln)” value: 9.42 for the first, 9.2 for the second.

Compared with AACATTTATATTTAAGTGCAGATGCTGTAATTTAGA, “ATGCGTTCATACATACATACATACATACAATTTGTA [TGCATGCA_negctrl_site50]” is higher in “gcPBM binding intensity (ln)” value: 9.09 for the first, 9.3 for the second.

First: TTTTTATAACAAAGTATTTAAATAATTTATACTAAT [TGCATGCA_negctrl_site104]
Second: GAACAAATTACAAGTTGTACTTTATGTAAATTATTA [XGTACX_site5304]
The “gcPBM binding intensity (ln)” value of the first is lower: 8.86 for the first, 9.08 for the second.

Compared with “TGCTCATGAGGTCAGAGTACAAAATAGTAAATGTAT [XGTACX_site2973]”, “TTTTGAATTAAACAAGCATGCTTTATTTACTTCTTA [TGCATGCA_site289]” is lower in “gcPBM binding intensity (ln)” value: 9.1 for the first, 9.07 for the second.

Going from “TAATTTATTAATAATTGTACAGATATTATACTTAAA [XGTACX_site8947]” to “TAATTCATCCTATGCACACACAATACCAAAATGTGC [CACACA_site4269]”, the “gcPBM binding intensity (ln)” value rises from 8.93 to 9.56.

Going from “TTTATTTTTATTTTTGTGCACGGGATTAAATAAAAG [GTGCAC_site9842]” to “TTTTTTTTTTTTTTTCTTTTTTATTCTCACAAAAAA [CACACA_negctrl_site1790]”, the “gcPBM binding intensity (ln)” value falls from 8.95 to 8.31.

First: AAGAAAAGTAAATATGCATGTAGGGTAGGTTATTTT [TGCATGCA_site46]
Second: CCTTTTTCTAATGGATGTACTTATTATATACATTAT [XGTACX_site281]
The “gcPBM binding intensity (ln)” value of the first is lower: 9.3 for the first, 9.37 for the second.

First: ATATTTTTTCTGAACGGTACAGAATTTTTCAAGATT [XGTACX_site484]
Second: TATATATATCTGTATACACACATATGTATGTTATGT [CACACA_site6090]
The “gcPBM binding intensity (ln)” value of the first is lower: 9.16 for the first, 9.7 for the second.

Going from “TTATTTTATCACACATGTACATATGTTAATTTTTTT [XGTACX_site5598]” to “AAATTTATATATAGTTGTACAAAAATATGTTTCGTA [XGTACX_site4801]”, the “gcPBM binding intensity (ln)” value falls from 9.34 to 9.24.

Compared with “AAAATAAAAAGAAATAAATTAACAGTAAGGAAAAAA [CACACA_negctrl_site1105]”, “TGAATAATCAATAGTACACACATATAAATATATATA [CACACA_site2813]” is higher in “gcPBM binding intensity (ln)” value: 9.54 for the first, 9.61 for the second.

Going from “ATTCCTCATTAATATTCTTATTTTTTAATTCACATT [XGTACX_negctrl_site329]” to “TAAAAGGAGACATATACACACATATATATATATATA [CACACA_site5539]”, the “gcPBM binding intensity (ln)” value falls from 9.37 to 9.28.

Going from “TTTATTTAAAATAAGTGTACTAGAAAAATTAAGCAG [XGTACX_site4982]” to “TGTGATTATGATAAAAGTACAGAAATAAATATACTA [XGTACX_site38]”, the “gcPBM binding intensity (ln)” value rises from 9.07 to 9.23.

Compared with ATAAAAAGCTAAAAAGTGCAAAAAGTAAATATTTAA, “TTTTATAAAGAACACAGACACACAAAGAAAGAACCA [CACACA_site4174]” is higher in “gcPBM binding intensity (ln)” value: 9.5 for the first, 9.88 for the second.

Going from “TATATATACTTAGAAACACACAAAAATATTTTATAA [CACACA_site2578]” to “TAATTAGTTTTTACTTTTTTTTTTTTTTTTCTATAT [CACACA_negctrl_site1024]”, the “gcPBM binding intensity (ln)” value falls from 9.37 to 9.17.

First: ATAATCCTGAAACACACACACACACCCATAAATAAA [CACACA_site481]
Second: TTATGTATATTATAAATTAATACCTTTAAATTAATA [CACACA_negctrl_site67]
The “gcPBM binding intensity (ln)” value of the first is higher: 10.1 for the first, 8.73 for the second.

Compared with “TATAACTTATTTTTTAGTACATATTATAGTTCATTT [XGTACX_site8649]”, “CTTTCCCTATATTGCTGTACATGTATTCAAAAAACA [XGTACX_site353]” is lower in “gcPBM binding intensity (ln)” value: 9.23 for the first, 9.21 for the second.

First: CGCGAACATACATACACACACATATATATATCTGTA [CACACA_site4277]
Second: AACATTAATTTCCTATGTACTTAATATATTGTTTTT [XGTACX_site4440]
The “gcPBM binding intensity (ln)” value of the first is higher: 9.85 for the first, 9.47 for the second.

First: AACACCCAAAAACACACACACATACATACATACATA [CACACA_site4411]
Second: ATTTATATATATGTATGTACGTATGTGTGTATATGT [XGTACX_site7587]
The “gcPBM binding intensity (ln)” value of the first is higher: 9.98 for the first, 9.71 for the second.

Compared with “ACCAATTTGACAAACTGTACAAAAAAAATATTAAAA [XGTACX_site1186]”, “TACACAAAAATAAACACACACACATATATATATATA [CACACA_site1000]” is higher in “gcPBM binding intensity (ln)” value: 9.04 for the first, 9.78 for the second.

First: TATATATTCCTCCATAGTACAATAATAAAGATAAAA [XGTACX_site5785]
Second: TTTTTTTTTTTTTTTTTTATATTTCATAATTTCATT [XGTACX_negctrl_site579]
The “gcPBM binding intensity (ln)” value of the first is higher: 9.12 for the first, 8.76 for the second.

Compared with “TTTATATTTCATTTGTTATTTTTCTTGGTTCTATAT [TGCATGCA_negctrl_site23]”, “TTTTGCCTGAACAATGCATGTTATTTTTATTTTTTT [TGCATGCA_site673]” is lower in “gcPBM binding intensity (ln)” value: 9.73 for the first, 9.44 for the second.

Compared with “TCATTTAAGTCATATTGAAATATGCATTATTCAAAA [CACACA_negctrl_site958]”, “ATCACTAATTTTTTTACACACCACAATTTAATTTTT [CACACA_site1186]” is higher in “gcPBM binding intensity (ln)” value: 8.87 for the first, 9.68 for the second.

Compared with “AAATGTGTTAATGTGCGTACACATATATATAATATT [XGTACX_site2792]”, “AATATATACACATGCGCACACACAAGTGGGAAATTT [CACACA_site8527]” is higher in “gcPBM binding intensity (ln)” value: 9.36 for the first, 9.73 for the second.

Going from “ATATGTACTATACGCACACACACTCACATATTTATA [CACACA_site7510]” to “TTTATTTATATAATTACACACATATATACTCAAATG [CACACA_site5543]”, the “gcPBM binding intensity (ln)” value falls from 10 to 9.45.

First: TTCTTAATTCATACCATCAAAACATTTATTCATATC [CACACA_negctrl_site43]
Second: ATAGGGTTTCTACTTTAACATTTTTGAAATATTATA [GTGCAC_negctrl_site260]
The “gcPBM binding intensity (ln)” value of the first is lower: 9.06 for the first, 9.13 for the second.

Going from “ATAATAAATACACTAGTGCAAAATAATATATGTACT [GTGCAC_site9707]” to “TATTTAGACATAACAAATAGACTAACAAAAGATTTA [GTGCAC_negctrl_site614]”, the “gcPBM binding intensity (ln)” value falls from 9.49 to 9.09.

Going from “TATTATAAATAAATAGAAAAAAAAATGATAAATGGA [CACACA_negctrl_site865]” to “AATATACGATTGTCATTCATACATTGTTAACATAGT [CACACA_negctrl_site1151]”, the “gcPBM binding intensity (ln)” value falls from 9.37 to 9.22.

First: ATATACAGAAAAAATTAAAATAAATATGCAAAACAA [CACACA_negctrl_site704]
Second: ACATAGTAAATATTATGTACATAATATATACATTTA [XGTACX_site7500]
The “gcPBM binding intensity (ln)” value of the first is higher: 9.53 for the first, 9.24 for the second.

Compared with “TACAATGAACATGAAACACACAAAAAAAAAAAAAAA [CACACA_site1544]”, “TACATATATATAATATATATATCATCATATTTTCTT [XGTACX_negctrl_site478]” is lower in “gcPBM binding intensity (ln)” value: 9.26 for the first, 9.05 for the second.

First: CTTAAACTTTTAAATACACACATACAGACATACACA [CACACA_site6401]
Second: TAAAAATGATCAAAGGGTACAGTATTAATTAAAAAA [XGTACX_site1079]
The “gcPBM binding intensity (ln)” value of the first is higher: 9.86 for the first, 9.28 for the second.

First: TTTACTTTTTTTATATATTATTTATTATATAATATA [CACACA_negctrl_site211]
Second: CGGGGGTAGTTTTATGCACACGTTTATTAATGCTTC [CACACA_site5717]
The “gcPBM binding intensity (ln)” value of the first is lower: 9.2 for the first, 9.61 for the second.

First: TGAAAAACTATCAGAGTGCATATATAGCTCGATACA
Second: ACCAATAATATACATACACACATAAATGTTTATATA [CACACA_site4328]
The “gcPBM binding intensity (ln)” value of the first is lower: 9.22 for the first, 9.59 for the second.

First: ACATGAATATATACACGTACATATATACATATATAT [XGTACX_site5872]
Second: TAAAATAATATATGGTGTACACAAAAGTATAAATAA [XGTACX_site4991]
The “gcPBM binding intensity (ln)” value of the first is lower: 9.34 for the first, 9.46 for the second.

Going from “TATATATATATATTATGTACTCATTTATTATCTTTT [XGTACX_site8051]” to “AAAAAAATAATTAACACACACATGTATATCTATATA [CACACA_site3139]”, the “gcPBM binding intensity (ln)” value rises from 9.36 to 9.69.

Compared with “ATATAAAAAAAATTTAGTACATATATATATATATAT [XGTACX_site8635]”, “ATTACCATATTTTGTACACACATCTTTATCTCAATA [CACACA_site3217]” is higher in “gcPBM binding intensity (ln)” value: 8.89 for the first, 9.76 for the second.

First: TAAAAATTAAAGTGTACACATATATATATATATATA [CACACA_site4781]
Second: TATAAACCGACGAAAACACACATATGTAAATATATA [CACACA_site491]
The “gcPBM binding intensity (ln)” value of the first is lower: 9.2 for the first, 9.69 for the second.

Compared with “TTTTATGTTTATGTGGTGCATGTTTTGAAGAAAATA [GTGCAC_site9616]”, “AAACCTATGTATATTATACACACTCCAAACTATTAT [CACACA_site8536]” is higher in “gcPBM binding intensity (ln)” value: 9.22 for the first, 9.54 for the second.

First: AAAAACAAAATTTGGAGTACAGTTATAATATTATTA [XGTACX_site5245]
Second: TTATAAAGAAAAAATTGCTTTAAAAGAAAGATTACA [CACACA_negctrl_site960]
The “gcPBM binding intensity (ln)” value of the first is higher: 9.29 for the first, 8.68 for the second.
